Source: the supplement of paper PMC9174493
Some of the results follow. Single values of this set are uncertain. Values with irradiation are relative to irradiated vehicle.

How the values were obtained:
A549-Dual [1] = assay: NF-kB reporter (SEAP) activity, viability-corrected, relative to vehicle (fold change vs vehicle); higher = more activation of STING-IRF / NF-kB immune response reporter; settings: 10 µM
A549-Dual [2] = assay: ISRE reporter (Lucia luciferase) activity, viability-corrected, relative to vehicle (fold change vs vehicle); higher = more activation of STING-IRF / NF-kB immune response reporter; settings: 10 µM
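Throughout, for NF-kB reporter (SEAP) activity, viability-corrected, relative to vehicle: viability correction based on the alamar blue assay, with concentrations leaving 10% survival or less dropped.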

Compound	NF-kB reporter (A549-Dual [1]; irradiation: 8 Gy/4 fr)	NF-kB reporter (A549-Dual [1]; irradiation: none)	ISRE reporter (A549-Dual [2]; irradiation: 8 Gy/4 fr)	ISRE reporter (A549-Dual [2]; irradiation: none)
O=C([O-])CC(O)(CC(=O)[O-])C(=O)[O-].O=C([O-])CC(O)(CC(=O)[O-])C(=O)[O-].[BiH6+3].[K+].[K+].[K+].[K+].[K+] [Bismuth Subcitrate Potassium]	1.02	1.07	1.16	1.2
C/C=C/C=C/C(=O)O [Sorbic acid]	0.727	0.901	0.617	0.708
Cc1c(S(=O)(=O)[O-])oc2c1C(=O)C(=O)c1c-2ccc2c1CCCC2(C)C.[Na+] [Tanshinone IIA sulfonate (sodium)]	0.819	0.897	0.848	0.932
Nc1nc2c(ncn2COCCO)c(=O)[nH]1 [Aciclovir]	0.706	0.894	0.76	0.739
CC1(C)SC2C(NC(=O)C(N)c3ccc(O)cc3)C(=O)N2C1C(=O)O.O.O.O (centres undefined) [Amoxicillin trihydrate]	0.952	0.873	0.727	0.574
CNC1(C)C2CCC(C2)C1(C)C.Cl (centres undefined) [Mecamylamine Hydrochloride]	1.56	2.17	0.643	2.31
C#CC1(O)CCC2C3CCc4cc(OC5CCCC5)ccc4C3CCC21C (centres undefined) [Quinestrol]	0.838	1.06	0.851	0.912
Clc1ccc2nsnc2c1NC1=NCCN1 [Tizanidine]	0.831	1.24	0.653	0.621
CC(C)(C)NCC(O)c1ccc(O)c(CO)c1.CC(C)(C)NCC(O)c1ccc(O)c(CO)c1.O=C(O)C(O)C(O)C(=O)O (centres undefined) [levalbuterol tartrate]	0.79	1.25	0.742	0.696
CCN1CCCC1CNC(=O)c1cc(S(=O)(=O)CC)c(N)cc1OC (centres undefined) [Amisulpride]	0.932	0.914	1.01	0.812
NC1CONC1=O [D-Cycloserine]	0.96	0.879	0.936	0.876
O=C(Nc1c(Cl)cncc1Cl)c1ccc(OC(F)F)c(OCC2CC2)c1 [Roflumilast]	0.691	0.934	0.64	0.741
Cc1ncc([N+](=O)[O-])n1CCOC(=O)c1ccccc1 [Metronidazole Benzoate]	1.05	1.11	0.989	0.894
CC(=O)O.CCC(C)C(NC(=O)C(Cc1ccc(O)cc1)NC(=O)C(NC(=O)C(CCCNC(=N)N)NC(=O)C(N)CC(=O)O)C(C)C)C(=O)NC(Cc1c[nH]cn1)C(=O)N1CCCC1C(=O)NC(Cc1ccccc1)C(=O)O (centres undefined) [Angiotensin II human Acetate]	0.779	1.24	0.733	0.996
Cl.OC(c1cc(C(F)(F)F)nc2c(C(F)(F)F)cccc12)C1CCCCN1 (centres undefined) [Mefloquine HCl]	0.55	0.723	0.684	2.27
O=C(Nc1ccccc1)c1ccccc1O [Salicylanilide]	0.791	1.43	0.323	0.481
